57 sequences from the supplement of paper PMC11417369 can be followed below.

± gives the standard deviation of the averaged measurements. Some of the results follow.

The experiment deals with PfAP2-EXP AP2 domain (GST-tagged). In words: gcPBM binding intensity (ln(normalized median fluorescence intensity)); higher = stronger DNA binding. The gist of the method:
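In this array assay, P. falciparum DNA-binding domains with a GST tag, expressed in E. coli, were applied for 1 h to primer-extended double-stranded 36-bp intergenic genomic probes and negative controls on an Agilent 4 × 180k array. Bound protein was visualised with Alexa488 anti-GST antibody at 488 nm. Binding intensity is the highest Masliner-normalised natural-log median intensity across replicate spots of either probe orientation.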
Regarding “AGATAAAATATATATGCACACACATATATATTTCAT [CACACA_site9183]”, the “gcPBM binding intensity (ln)” value was 8.43 ± 0.19.
Under “TTAATAATTAATATATGTACTGATAAATAACATATA [XGTACX_site3966]” stands 8.29 ± 0.3; under “ATTCTATATAAATATACACACATATATAAAATACAT [CACACA_site2293]”, 8.45 ± 0.39.
The value for “TAATTATTTAAAAAGAGTACATTTTTTTTTTTTTTT [XGTACX_site1060]” was 8.25 ± 0.2; that for “ATAATTATTTAATATATATATATTATTTCGAATGTT [GTGCAC_negctrl_site688]” was 8.59 ± 0.58.
As to “ACATATCTATCGTTTTTAATTGTATATTATTATAAC [TGCATGCA_negctrl_site144]”, the “gcPBM binding intensity (ln)” value is 8.46 ± 0.5.
Consider “TGTTTGTAATTATGTATGCACTTTTTTGTATGTGTG [GTGCAC_site9668]”, for which the “gcPBM binding intensity (ln)” value turned out to be 8.85 ± 0.38.
The value for “TCCCACTGTTATATTGAAAAAAAAAAAAAAAAAAAA [TGCATGCA_negctrl_site288]” was 7.96 ± 0.5; that for “AGAAAAAAACAACATGCACACGCACCCACAAAAAAA [CACACA_site7908]” was 8.88 ± 0.3.
The value for “ATATTCTTGTTTAATACACACTGTAGTATTATATAT [CACACA_site4400]” was 8.84 ± 0.58; that for TAATGAGCGCTTGTAGTGCATTATATTCAAAAATAT was 8.54 ± 0.2; that for “TCTTGTATATGTTAAAGTACACAACAATATATATAT [XGTACX_site6814]” was 9.55 ± 0.16.
Under “ATACCTTCTTTTATGTTTAATTAATATACTTTTTAT [CACACA_negctrl_site1557]” stands 9.03 ± 0.54.
As for “TTTGAAAAAAATTAATGTACATTTGAAATGACATAT [XGTACX_site3902]”, the “gcPBM binding intensity (ln)” value turned out to be 8.21 ± 0.3.
Under “GTATAAAAGTTATATACACACAACAGAATTACATAT [CACACA_site6212]” stands 8.68 ± 0.49; under “AAAAAAAAAAAACACACACACACAAATATATAAAAA [CACACA_site1171]”, 8.53 ± 0.59; under “AATACATACATACATACACACATATAAATATATTAT [CACACA_site7650]”, 8.59 ± 0.48.
The value for “TCATATATGGGTAGTATACACACTGTATATTTAGGA [CACACA_site2844]” was 8.59 ± 0.46.
Under “TTTGCCCAAAAAGGTACACACCACAATGTACATAAA [CACACA_site4599]” stands 8.78 ± 0.42; under “TTTTATTTAAATACACGTACATAATGTATATATATA [XGTACX_site7160]”, 9.095 ± 0.035.
For the sequence “ACATGATGTCATAAATGTACGCACACATACATAAAC [XGTACX_site1198]”, the “gcPBM binding intensity (ln)” value is 8.69 ± 0.31.
The value for “TCTTTTTAAATATATACACACCGTGTCTACAGATAC [CACACA_site5784]” was 8.47 ± 0.4; that for “GAACATTTCACACAAAAAAAAAAAAATATATATATA [TGCATGCA_negctrl_site518]” was 9.81 ± 0.33.
The value for “TACTAATATAATAAAAGTACTTAAATAAATATATGT [XGTACX_site2220]” was 8.61 ± 0.42.
In the case of “TCTAACATATTTTTAATACACACTTAAAAAAGTACT [CACACA_site1366]”, the “gcPBM binding intensity (ln)” value was determined as 8.33 ± 0.34.
Under “ATTTACATTATATTGAATATGCCATATTATATTATT [CACACA_negctrl_site811]” stands 8.6 ± 0.41; under “AATGCTTTTCATCAAGTGCAATATGTTAATACAAAC [GTGCAC_site9619]”, 8.59 ± 0.028.
The value for “AAAAAAAAAAATGGTTGTACTTTTTTTATTTGGTGC [XGTACX_site4498]” was 8.49 ± 0.34; that for “GTAGACTGAAACCACACACACATATATAAATATATT [CACACA_site6433]” was 8.59 ± 0.38.
The value for “TCTATATCAACCAGTTGTACTGAATTTACTATATTT [XGTACX_site4205]” was 8.42 ± 0.34.
With “TATAAAAGTAGACACACACACATATAAATATAAATA [CACACA_site6567]”, the “gcPBM binding intensity (ln)” value stood at 8.84 ± 0.37.
The value for “ATATTATATTGGATGTTGCACTTAACAAAAGGATAT [GTGCAC_site9478]” was 8.81 ± 0.22; that for “ATAGACTTTTGTTTTGTTTTATTTTATTGTATTGTA [CACACA_negctrl_site618]” was 8.63 ± 0.54.
For the sequence TGTATGTATAATTGAGTGCACAGAAAAAAAAAAGAA, the “gcPBM binding intensity (ln)” value was determined as 9.6 ± 0.17.
With “TAATTTTCATATTTCTGTACATATATTATAAATATA [XGTACX_site3480]”, the “gcPBM binding intensity (ln)” value was found to be 8.29 ± 0.028.
Under “AGAAAAAAAAAAAAAAAACACACGGTACATTCAAAG [CACACA_site2]” stands 8.61 ± 0.49; under “TAATATATATATATTACACACACGTATTATTAAATA [CACACA_site432]”, 8.69 ± 0.45.
The value for “AAAAAATATTTATGTTCACACATTTTATATATGATA [CACACA_site4821]” was 8.41 ± 0.42; that for “TTTTTTTTTTGATGAGCACACATGTTTTTTCTTAGA [CACACA_site3171]” was 8.46 ± 0.43.
Turning to “AAATATTTTTAAAGAAGTACTTTTTAAAAATAATCT [XGTACX_site4897]”, the “gcPBM binding intensity (ln)” value came out at 8.54 ± 0.49.
With “AATAAATATATATACACACCCATATATATATATATA [CACACA_site2595]”, the “gcPBM binding intensity (ln)” value came to 10.1 ± 0.42.
The value for “TCTTTGTTTTTTTTTTTTAAACAAAATCATCAAAGG [XGTACX_negctrl_site192]” was 8.16 ± 0.53; that for “AAGATACACCTTTTTAGTACTTACATTTTTTTTATT [XGTACX_site1373]” was 8.78 ± 0.4; that for “GCGTATACTTGTAACGGTACACAGGAAATTATAGAA [XGTACX_site507]” was 8.82 ± 0.4.
Under “TATATATATGGACACACACACACCAAAGCGTAGCGC [CACACA_site4209]” stands 8.88 ± 0.68; under “TACACTTTTTTTTGTACACACTAAAAAGATTAACAA [CACACA_site6037]”, 8.47 ± 0.26.
Under “TAATGTTGTTTCTGAGGTACACAATTTTTTTTATTT [XGTACX_site8035]” stands 8.44 ± 0.38.
As for “TTAATGAAATATTATACACACAAAAAAATAATTTTA [CACACA_site4231]”, the “gcPBM binding intensity (ln)” value is 8.42 ± 0.42.
The value for “ACCATACAGAATAATGCATGTTCCTTTTTATGAATA [TGCATGCA_site995]” was 8.76 ± 0.38; that for “AAAAAAATAAAGGATATACACACTAATTATATATAT [CACACA_site2812]” was 8.74 ± 0.26.
Under “TATACTTGTAAATGCACACATAAGATGCGACTAATG [CACACA_site2118]” stands 8.62 ± 0.29; under “CCAACATAGAGGGGCACACACATATATACCTAAAAA [CACACA_site5088]”, 8.62 ± 0.51.
The value for “AAAATAATTGTTTACACACCCATTTGTAATTTTACC [CACACA_site3614]” was 8.54 ± 0.37.
Take “CTGTGTTTTGGTTGTACACACGCTACATTCTATATT [CACACA_site2698]”: the “gcPBM binding intensity (ln)” value was determined as 9.16 ± 0.28.
The value for “AGATTATAAAATTCTACACACATATATACCTATATA [CACACA_site5848]” was 8.25 ± 0.3.
Under “ATTATATATATATAAACACACAAATATTTTTATATA [CACACA_site5005]” stands 8.31 ± 0.32.
Under “TAATATTAATCCTAGTGTACATTAATTTATATGTAT [XGTACX_site3583]” stands 8.51 ± 0.45.
